Screen size: about 150,000 compounds; about 540 (0.36%) showed an effect of 50% or more. The list shows a part of the results.
These compounds were tested on Plasmodium falciparum (assay: Primary screen in NF54 nanoGlo assay, in single point, at 2uM, 72h; a lower Z score goes with more inhibition). Settings: timepoint 72 hour.
Format: functional, Erythrocyte

| SMILES | % Inhibition [%] | Z score |
| --- | --- | --- |
| CCN(CC#N)C(=O)c1ccc(C)[nH]c1=O | -2 | 0.23 |
| Cc1nn(-c2ccc3nncn3n2)c(C)c1CCC(=O)NC1CCCC1 | -17 | 2.12 |
| CC[C@@]1(C)Nc2ccccc2-c2nc(=O)c(-c3ccc(F)cc3)nn21 | 6 | -0.7 |
| COC(=O)[C@@H]1Cc2[nH]cnc2C(C)(C)N1 | -12 | 1.09 |
| CC[C@@H](C)[C@@H]1NC(=O)N(C2CCS(=O)(=O)C2)C1=O (stereo partly specified) | -13 | 1.58 |
| CO[C@@H](Cc1ccc(F)cc1)CS(=O)(=O)N1CCC(c2ncc[nH]2)CC1 | -4 | 0.89 |
| COCCn1cncc1CN1C(=O)CCCC1=O | -7 | 0.8 |
| CCN(CC)CC(=O)N1CCN(c2cccnc2C#N)CC1 | -4 | 0.44 |
| O=C(Nc1cnc2ccccc2c1)c1ccccc1C(=O)c1ccc(F)cc1 | 93 | -10.24 |
| O=C(Cc1cnc(-c2ccc(F)cc2)s1)NC[C@@H]1CCCN2CCCC[C@H]12 | -8 | 1.26 |
| O=C1CC2(CCN(S(=O)(=O)c3ccccc3)CC2)CN1Cc1ccccc1 | -1 | 0.24 |
| CC[C@H](NCc1ncccc1C)c1cc(F)ccc1F | -13 | 1.33 |
| CCCN(CC#Cc1ccccc1)C(=O)[C@H]1CCCN(C(N)=O)C1 | -6 | 1.26 |
| CCc1ncnc(NCCc2cncn2C)c1F | 0 | -0.01 |
| CC[C@@H](C(=O)N1CCCN(c2ccc(NC(=O)c3cccc(OC)c3)cc2C(=O)NCc2ccc(F)cc2)CC1)c1ccccc1 | 10 | -1.76 |
| NC(=O)c1cc2c(nc1N1CCN(Cc3cccc(F)c3)CC1)CCC2 | -13 | 2.59 |
| Cc1ccc2oc(-c3ccc(NC(=O)CCc4cn[nH]c4)c(C)c3)nc2c1 | -3 | 0.36 |
| Cc1nc(C(F)(F)F)c(Cn2cc(F)ccc2=O)s1 | -7 | 1.01 |
| Cc1cnc(N[C@@H](C)c2ccc(Cl)cn2)nc1C | -4 | 0.53 |
| CCn1c(C)[n+](CCOCC[n+]2c(C)n(CC)c3cc(Cl)c(Cl)cc32)c2cc(Cl)c(Cl)cc21 | 7 | -0.66 |
| Cc1ccsc1CN(Cc1ccccn1)C(=O)CN1CCCCCC1=O | -12 | 1.15 |

| SMILES | % Inhibition [%] | Z score |
| --- | --- | --- |
| Cc1nnc2c(N3CCN(C(=O)C4CC=CC4)CC3)nccn12 | -9 | 1.18 |
| CC(C)Cn1c(CC2(CC(=O)NC3CCOCC3)CCCC2)nc2cccnc21 | -12 | 1.81 |
| CCOc1cccc(CNC(=O)[C@H]2CCN(c3cnn(C)c(=O)c3)C2)c1 | -14 | 1.88 |
| Cc1c(C(=O)Nc2nccn2Cc2ccccc2Cl)nnn1[C@H]1CCNC1 | -8 | 1.09 |
| CO[C@H]1C[C@H]2CC[C@@H](C1)N2C(=O)c1cccc(OC(F)F)c1 | -3 | 0.37 |
| O=C(NCCN1CCCOC1=O)[C@@H]1CCCN1Cc1ccccc1 | -4 | 0.79 |
| O=C(c1cc(Br)ccc1Cl)N(C(=O)c1cc(Br)ccc1Cl)c1cc(C(F)(F)F)ccc1Cl | -3 | 0.48 |
| CC(C)C(=O)N[C@@H](C)C(=O)N1CCCC1 | -5 | 0.65 |
| COCCN(CCOC)CC[C@@H]1CC[C@H](O)[C@@H](C(=O)Nc2ccccc2)O1 | 16 | -1.85 |
| CCC1CN(C(=O)C(C)C)CCC1NCc1ncc[nH]1 (stereo unspecified) | -8 | 1.11 |
| C[C@H](NC1CCN(c2ccccc2Cl)CC1)c1cnn(C)c1 | -7 | 0.81 |
| Cc1cc(Cl)ccc1S(=O)(=O)NC[C@H]1CN(C)CC12CCCCC2 | -2 | 0.39 |
| O=C(CCc1cn[nH]c1)N1CC(Oc2ccccc2F)C1 | -4 | 0.68 |
| CCN1CCN(c2nc(-c3ccccc3)ncc2C(=O)Nc2ccc(C)cc2)CC1 | -14 | 1.28 |
| Cc1c(Cl)cccc1-n1nc(C)c2c(C(F)(F)F)cc(OCCOc3ccccc3)nc21 | -16 | 1.65 |
| Cn1c(=O)c2c(ncn2CC(=O)N(CCC#N)Cc2ccco2)n(C)c1=O | -6 | 0.84 |
| Cc1ccc(-c2noc3nc(C)cc(C(=O)Nc4ccncc4)c23)cc1 | -6 | 0.94 |
| COC(=O)c1sc(CC(=O)NCc2ccccc2)nc1C | -7 | 0.74 |
| CCC(CC)NC(=O)Nc1ccn(Cc2cn3ccccc3n2)n1 | -7 | 1.2 |
| C=CCN1CC[C@H](CNC(=O)c2ccc(-c3cc(C)c(C#N)c(C)n3)cc2)C1 | 0 | -0.01 |
| Cc1ccc(-c2noc(CCc3nnc(C4CCCC4)o3)n2)nc1C | 3 | -0.63 |

| SMILES | % Inhibition [%] | Z score |
| --- | --- | --- |
| O=C(NCc1ccccc1)c1cn2cc(Cl)cnc2n1 | -9 | 1.58 |
| O=C(c1ccc(=O)[nH]n1)N1CCC(Cc2ccccc2)CC1 | -3 | 0.4 |
| CN(Cc1ccccc1O)C(=O)c1cccc2c3c([nH]c12)CCCC3 | -10 | 1.57 |
| CCCc1cc(N2C[C@H]3C[C@H](O)[C@H](O)C[C@H]3C2)nc(C)n1 | -4 | 0.48 |
| O=C(c1cccc2ccccc12)[C@H]1CCCN(Cc2cccn2-c2nccs2)C1 | -6 | 0.5 |
| CN(C)C(=O)C1(C)CCN(C(=O)c2cccn3cnnc23)CC1 | -6 | 1.02 |
| Cc1nc[nH]c1-c1c(-c2ccccc2)ncn1Cc1cc(CC(C)C)no1 | 12 | -1.6 |
| C=CCn1ncc2c(=O)[nH]c(NCC3(N(C)C)CCCC3)nc21 | 22 | -2.85 |
| OC(c1ccccc1)(c1ccccc1)[C@@H]1CCCN1Cc1ccccc1 | 8 | -1.62 |
| Cn1cc([C@@H](NC(=O)c2cccc(-c3ncc[nH]3)c2)C2CC(O)C2)cn1 (stereo partly specified) | -4 | 0.79 |
| Cc1cc(OC(=O)c2ccccc2)c(C(C)C)cc1NC1=NS(=O)(=O)c2ccccc21 | -8 | 1.07 |
| O=C(Nc1cc(S(=O)(=O)Nc2ccc(Cl)cc2)ccc1N1CCCC1)c1ccc(F)cc1F | -9 | 1.18 |
| O=C(c1cn2cc(Cl)ccc2n1)N1CCCN([C@H]2COC[C@@H]2O)CC1 | -2 | 0.15 |
| CNC(=O)CN1CCC(NC(=O)N2CCN(c3ccccc3F)C[C@@H]2C)CC1 | 1 | -0.11 |
| Cc1nn(C)c2nc(N[C@H](c3nccn3C)C3CC3)sc12 | -6 | 1.26 |
| Nc1nc(N)nc(Cn2cc(C(F)(F)F)ccc2=O)n1 | 9 | -1.22 |
| CC(C)(C)c1cnc(Cn2nc(C(F)(F)F)ccc2=O)o1 | -14 | 1.25 |
| Cc1ccc(O)c(NC(=O)[C@H](C)OCC(F)(F)F)c1 | -7 | 0.85 |
| COc1cc(C(=O)N[C@@H]2COCC[C@@H]2Oc2ccccc2)ccn1 | -5 | 0.96 |
| CCOc1ccc(CCN2C(=O)CC[C@@]2(C)C(=O)NC2CCCCCC2)cc1OCC | -8 | 1.14 |
| COCCN(C)C[C@@H]1CN(C(=O)Cc2c(C)[nH]c3c(C)ccc(C)c23)C[C@@H]1CO | 3 | -0.43 |

| SMILES | % Inhibition [%] | Z score |
| --- | --- | --- |
| COc1ccc(C2C(C)C3(O)CC(C#N)(C(=O)N3)C2(C#N)C#N)cc1 (stereo unspecified) | -8 | 0.97 |
| O=C(C1CCC(C(F)(F)F)C1)N1CCC2(CCC2)C1 (stereo unspecified) | -8 | 1.52 |
| Cn1nccc1C(=O)N[C@@H]1C[C@H]1c1ccc(Cl)cc1Cl | 3 | -0.44 |
| O=C(Cn1cccn1)NC[C@H](Cc1ccc2ccccc2c1)C(=O)O | -2 | 0.31 |
| CCNC(=O)N1CCC(c2nc(C)ccc2C(=O)N(C)C2CCCCC2)CC1 | -9 | 1.16 |
| CC(C)c1ccccc1OC[C@@H](O)CN1CCOC2(CCC2)C1 | 1 | -0.07 |
| CCc1ccc([C@@H]2CN(C(=O)c3c[nH]c(=O)cc3OC)CCO2)cc1 | -15 | 1.71 |
| NC(=NC[C@H]1CCc2ccccc21)N1CCOCC1 | -13 | 1.87 |
| CCC1(CC)CCCN(C(=O)Nc2ccn(C(C)C)n2)CC1 | -10 | 0.98 |
| CC[C@H]1CCCN(C(=O)CC2(CS(C)(=O)=O)CC2)CC1 | -13 | 1.33 |
| O=S(=O)(Oc1ccc2ccccc2c1)c1cccc2cccnc12 | -3 | 0.39 |
| Cc1cc2c(C)c(C(=O)N3CCCCCC3)oc2c(S(=O)(=O)NCCCN2CCOCC2)c1C | -15 | 1.78 |
| CC[C@H]1CN(C(=O)CCc2cccn2C)CCO1 | -9 | 1.49 |
| O=C(c1ccco1)N1CCN(C(c2ccccc2)c2ccccc2)CC1 | 0 | 0.07 |
| CCOc1ccc(N2Cc3cccc(OCC)c3OCC2=O)cc1 | -8 | 1.07 |
| CCCn1nnnc1Cn1ncn(C)c1=O | -3 | 0.52 |
| Cc1ccc(C)c(NS(=O)(=O)c2cc(-c3ccc(=O)[nH]n3)ccc2C)c1 | -23 | 2.07 |
| CCc1nnsc1C(=O)N1CCC2(CC1)NC(=O)NC2=O | -10 | 1.3 |
| Cn1ccnc1[C@@H](O)c1cc2n(n1)CCN(c1cccc(C#N)n1)C2 | -7 | 1.02 |
| CC(C)CN1CCN(S(=O)(=O)N2CCN(C)CC2)CC1 | -13 | 2.35 |

Source: ChEMBL document CHEMBL4888484, “Replenishing the malaria drug discovery pipeline: Screening and hit evaluation of the MMV Hit Generation Library 1 (HGL1) against asexual blood stage Plasmodium falciparum ,using a nano luciferase reporter read-out” (2022)
